Common to all, as to test: uncleaved DNA left, log2 of reads against the no-enzyme library (log2 ratio); higher = less cleavage (more negative = more Rep cleavage of the k-mer); sequences stand for … in CTCGTCCG…ACCGGAGA
The test system of experiment [1] is T1, Rep nickase domain of Muscovy duck circovirus.
T1 sequence (Rep 1-111, printed without the tag): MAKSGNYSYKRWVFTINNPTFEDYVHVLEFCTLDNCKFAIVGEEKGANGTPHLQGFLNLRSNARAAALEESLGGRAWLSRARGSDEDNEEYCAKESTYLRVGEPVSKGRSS
The protocol: (§1)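 A pool of 90-nt single-stranded DNAs with seven random bases just before the constant AC of the nick site (name = the seven bases) was cut by 3 µM recombinant His6-SUMO-tagged Rep nickase domain (300 nM DNA, 50 mM HEPES pH 8.0, 50 mM NaCl, 1 mM MnCl2, 1 h, 37 °C, three replicates). Uncut DNA was amplified and sequenced.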

In experiment [2] the test system is T2, Rep nickase domain of banana bunchy top virus.
T2 sequence (Rep 1-94, printed without the tag): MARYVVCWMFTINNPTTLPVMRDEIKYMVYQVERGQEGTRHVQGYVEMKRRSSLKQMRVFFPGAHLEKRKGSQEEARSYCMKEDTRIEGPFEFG
As to the method: as §1
The subject of experiment [3] is T3, Rep nickase domain of cabbage leaf curl virus.
T3 sequence (Rep 1-116, printed without the tag): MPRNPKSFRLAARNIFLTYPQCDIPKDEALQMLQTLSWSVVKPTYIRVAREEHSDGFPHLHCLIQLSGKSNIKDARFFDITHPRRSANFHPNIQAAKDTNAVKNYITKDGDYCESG
As to the method: as §1
Experiment [4] relates to T4, Rep nickase domain of chickpea chlorotic dwarf virus.
T4 sequence (Rep 1-124, printed without the tag): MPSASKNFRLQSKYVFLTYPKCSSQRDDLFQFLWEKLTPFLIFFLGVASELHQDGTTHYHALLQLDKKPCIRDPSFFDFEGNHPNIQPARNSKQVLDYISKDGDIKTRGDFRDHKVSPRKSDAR
As to the method: as §1
For experiment [5], the system named is T5, Rep nickase domain of faba bean necrotic yellows virus.
T5 sequence (Rep 1-98, printed without the tag): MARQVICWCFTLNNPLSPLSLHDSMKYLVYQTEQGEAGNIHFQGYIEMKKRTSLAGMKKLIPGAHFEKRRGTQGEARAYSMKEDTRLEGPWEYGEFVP
The protocol: as §1
Experiment [6] deals with T6, Rep nickase domain of maize striate mosaic virus.
T6 sequence (Rep 1-117, printed without the tag): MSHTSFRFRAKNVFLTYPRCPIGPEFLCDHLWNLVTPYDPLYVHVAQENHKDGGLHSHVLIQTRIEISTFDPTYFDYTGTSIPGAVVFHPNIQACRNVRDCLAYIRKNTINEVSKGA
As to the method: as §1
Experiment [7] has as its system T7, Rep nickase domain of porcine circovirus 2.
T7 sequence (Rep 2-116, printed without the tag): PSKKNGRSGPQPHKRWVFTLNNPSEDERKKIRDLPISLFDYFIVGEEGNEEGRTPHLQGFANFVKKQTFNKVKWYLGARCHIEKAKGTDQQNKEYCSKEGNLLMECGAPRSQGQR
The protocol: as §1
Experiment [8] concerns T8, Rep nickase domain of tomato golden mosaic virus.
T8 sequence (Rep 1-124, printed without the tag): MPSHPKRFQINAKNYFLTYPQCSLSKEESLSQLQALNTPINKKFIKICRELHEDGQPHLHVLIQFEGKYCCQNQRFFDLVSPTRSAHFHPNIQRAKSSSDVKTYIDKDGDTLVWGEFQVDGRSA
As to the method: as §1
Experiment [9] deals with T9, Rep nickase domain of tomato yellow leaf curl virus.
T9 sequence (Rep 1-136, printed without the tag): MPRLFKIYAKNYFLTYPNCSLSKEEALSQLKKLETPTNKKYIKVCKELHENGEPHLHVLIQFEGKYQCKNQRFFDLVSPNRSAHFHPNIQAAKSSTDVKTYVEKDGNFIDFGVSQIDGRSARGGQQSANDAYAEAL
As to the method:
as §1

In experiment [10] the test system is T10, Rep nickase domain of wheat dwarf virus.
T10 sequence (Rep 1-137, printed without the tag): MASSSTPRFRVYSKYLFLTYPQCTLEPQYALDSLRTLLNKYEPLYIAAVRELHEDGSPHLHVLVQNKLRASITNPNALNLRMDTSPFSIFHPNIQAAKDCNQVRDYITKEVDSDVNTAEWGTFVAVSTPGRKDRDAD
The protocol:
as §1

The other results are listed elsewhere or left out. One pool of 16,384 single-stranded DNAs met each Rep nickase domain in vitro for 1 h at 37 °C with 3 µM enzyme; only the middle of the 90-letter strands is printed. Numbers give uncut DNA relative to the enzyme-free pool, as log2; the lower, the more was cut; hits are not called. Reads are scaled to the total; values above 0 arise when much of the pool is cut.

For TGAAATT, the “uncleaved DNA left (log2)” value is 0.0919 in [1]; 0.101 in experiment [2]; 0.236 in experiment [3]; -1.93 in [4]; 0.158 in [5]; 0.192 in experiment [6]. In addition, the “uncleaved DNA left (log2)” value in experiment [7] is -0.608; in experiment [8], 0.0777; in [9], 0.208; in experiment [10], 0.0613.
With GCAGGCG, the “uncleaved DNA left (log2)” value was -0.123 in [1]; 0.0625 in [2]; -0.338 in experiment [3]; 1.07 in experiment [4]; 0.065 in experiment [5]; 0.665 in [6]. Moreover, the “uncleaved DNA left (log2)” value in experiment [7] was 0.156; in [8], -0.0503; in [9], 0.00427; in experiment [10], -0.0314.
Consider TCATCCG, for which the “uncleaved DNA left (log2)” value in experiment [1] is -0.00932; in experiment [2], -0.0408; in [3], -0.807; in [4], -0.281; in [5], 0.0439; in experiment [6] it was -1.03. For the same sequence, the “uncleaved DNA left (log2)” value in experiment [7] is 0.104; in experiment [8] it was -0.0794; in experiment [9] it was -0.0203; in experiment [10], -0.0785.
For the sequence TAGCTCA, the “uncleaved DNA left (log2)” value is -0.019 in experiment [1]; 0.0745 in experiment [2]; -0.195 in [3]; -2.04 in experiment [4]; -0.0192 in experiment [5]; -0.402 in experiment [6]. Also, the “uncleaved DNA left (log2)” value in experiment [7] is -2.07; in experiment [8], 0.0382; in [9] it was 0.179; in [10], -0.00195.
As to TAGATGC, the “uncleaved DNA left (log2)” value is 0.034 in experiment [1]; -0.088 in [2]; -0.43 in experiment [3]; -0.554 in experiment [4]; 0.0518 in experiment [5]; -1.22 in experiment [6]. Besides, the “uncleaved DNA left (log2)” value in experiment [7] is 0.0338; in experiment [8], 0.0549; in [9] it was -0.0871; in experiment [10], 0.00519.
In the case of TGTCTCG, the “uncleaved DNA left (log2)” value in experiment [1] was -0.0257; in experiment [2], -0.171; in experiment [3], -0.747; in experiment [4], -0.493; in [5], -0.0896; in experiment [6], -1.09. The “uncleaved DNA left (log2)” value is 0.0152 in [7], -0.0502 in [8], -0.138 in experiment [9] and -0.227 in experiment [10].
For CTTACCG, the “uncleaved DNA left (log2)” value was -0.0183 in experiment [1]; -0.0128 in experiment [2]; -0.918 in experiment [3]; -1.72 in experiment [4]; 0.117 in experiment [5]; -0.959 in experiment [6]. The “uncleaved DNA left (log2)” value in experiment [7] was 0.0636; in [8] it was -0.0605; in experiment [9], -0.0207; in [10] it was -0.195.
Consider ATAACTG, for which the “uncleaved DNA left (log2)” value in [1] was 0.0759; in experiment [2] it was 0.0631; in experiment [3], -0.13; in experiment [4], 0.129; in [5] it was 0.0387; in experiment [6] it was 0.961. Moreover, the “uncleaved DNA left (log2)” value in experiment [7] came to 0.228; in [8], 0.149; in [9], 0.0886; in [10], 0.2.
On to GAATAGC, for which the “uncleaved DNA left (log2)” value was 0.0546 in experiment [1]; 0.0809 in [2]; -0.357 in experiment [3]; -0.416 in [4]; 0.0141 in experiment [5]; -0.868 in [6]. Also, the “uncleaved DNA left (log2)” value is 0.0658 in [7], -0.11 in [8], 0.0401 in [9] and -0.0462 in [10].
Take GGATCTA: the “uncleaved DNA left (log2)” value is 0.0503 in [1]; 0.0643 in experiment [2]; 0.611 in experiment [3]; 1.3 in [4]; 0.0294 in [5]; 1.93 in [6]. Moreover, the “uncleaved DNA left (log2)” value in [7] is 0.0952; in experiment [8] it was -0.112; in [9], 0.0635; in experiment [10], 0.174.
Take CACGAGT: the “uncleaved DNA left (log2)” value was -0.107 in experiment [1]; -0.0494 in [2]; -0.0347 in experiment [3]; -0.469 in experiment [4]; 0.0157 in [5]; -0.773 in [6]. Also, the “uncleaved DNA left (log2)” value is -0.49 in experiment [7], 0.0947 in experiment [8], -0.149 in experiment [9] and -0.207 in [10].
Consider CGCCAGG, for which the “uncleaved DNA left (log2)” value in [1] is -0.0645; in experiment [2], -0.166; in experiment [3], 0.0735; in [4] it was 0.485; in experiment [5], -0.00882; in [6], 0.319. Further, the “uncleaved DNA left (log2)” value is 0.096 in experiment [7], -0.135 in experiment [8], -0.113 in [9] and -0.077 in [10].
AGAGACG: the “uncleaved DNA left (log2)” value is 0.138 in [1]; 0.0863 in experiment [2]; -0.021 in experiment [3]; 0.617 in experiment [4]; -0.0294 in experiment [5]; 1.26 in experiment [6]. Besides, the “uncleaved DNA left (log2)” value was 0.177 in experiment [7], 0.148 in experiment [8], -0.0155 in experiment [9] and 0.0966 in experiment [10].
Regarding TCCGGTC, the “uncleaved DNA left (log2)” value in [1] is -0.0629; in experiment [2], -0.136; in [3] it was 0.201; in experiment [4], 0.362; in experiment [5], 0.0033; in [6], 0.611. The “uncleaved DNA left (log2)” value is -0.0557 in experiment [7], -0.105 in experiment [8], -0.0643 in experiment [9] and -0.12 in experiment [10].
Turning to TCCCCAA, the “uncleaved DNA left (log2)” value in experiment [1] was -0.127; in experiment [2], -0.0365; in [3], 0.044; in experiment [4] it was -0.247; in experiment [5], -0.0596; in [6] it was -0.451. Besides, the “uncleaved DNA left (log2)” value in experiment [7] was -0.187; in experiment [8] it was -0.104; in experiment [9] it was -0.0934; in [10], -0.0444.

(Values after the supplement of paper PMC7826260.)
